Where “and” joins values, the source holds several entries; their conditions need not be identical. Equal values may be shown once.
Experiments:
PLY Peptide 10146 [1] = assay: peptide ELISA, plate 1
Peptide GNT-01 [2] = assay: peptide ELISA, plate 1
Peptide GNT-02 [3] = assay: peptide ELISA, plate 1
Peptide GNT-08 [4] = assay: peptide ELISA, plate 1
Peptide GNT-13 [5] = assay: peptide ELISA, plate 1
Peptide GNT-14 [6] = assay: peptide ELISA, plate 1
PsaA Peptide 9144 [7] = assay: peptide ELISA, plate 1
Peptide GNT-03 [8] = assay: peptide ELISA, plate 2
Peptide GNT-04 = assay: peptide ELISA, plate 2
Peptide GNT-06 [9] = assay: peptide ELISA, plate 2
Peptide GNT-062 = assay: peptide ELISA, plate 2
Peptide GNT-08 [10] = assay: peptide ELISA, plate 2
Peptide GNT-09 [11] = assay: peptide ELISA, plate 2
Peptide GNT-10 = assay: peptide ELISA, plate 2
Peptide GNT-13 [12] = assay: peptide ELISA, plate 2
Peptide GNT-14 [13] = assay: peptide ELISA, plate 2
PsaA Peptide 9144 [14] = assay: peptide ELISA, plate 2
PLY Peptide 10146 [15] = assay: peptide ELISA, plate 1 overview
Peptide GNT-01 [16] = assay: peptide ELISA, plate 1 overview
Peptide GNT-02 [17] = assay: peptide ELISA, plate 1 overview
Peptide GNT-07 [18] = assay: peptide ELISA, plate 1 overview
PsaA Peptide 9144 [19] = assay: peptide ELISA, plate 1 overview
PLY Peptide 10146 [20] = assay: peptide ELISA, plate 2 overview
Peptide GNT-01 [21] = assay: peptide ELISA, plate 2 overview
Peptide GNT-02 [22] = assay: peptide ELISA, plate 2 overview
Peptide GNT-03 [23] = assay: peptide ELISA, plate 2 overview
Peptide GNT-06 [24] = assay: peptide ELISA, plate 2 overview
Peptide GNT-07 [25] = assay: peptide ELISA, plate 2 overview
Peptide GNT-09 [26] = assay: peptide ELISA, plate 2 overview
PsaA Peptide 9144 [27] = assay: peptide ELISA, plate 2 overview

B1: 26-5F12.1 (antibody, V domains shown)
VH: VKLQESGAEVKKPGASVKVSCTASGYIFTSYAIHWVRQAPGQRLEWMGWINAGYGNTKYSQKFQGRVSITRDKSASTAYMELSSLRSEDTAVYYCARRGQQLAFDYWGQGTTVTVSS
VL: [about 100 residues omitted here]
Elisa reading (PLY Peptide 10146 [1]): 2.56 and 3 | Elisa reading (Peptide GNT-01 [2]): 1.68 and 2.98 and 3 | Elisa reading (Peptide GNT-02 [3]): 3 | Elisa reading (Peptide GNT-08 [4]): 1.23 and 0.89 and 1.09 | Elisa reading (Peptide GNT-13 [5]): 0.09 | Elisa reading (Peptide GNT-14 [6]): 0.08 and 0.09 | Elisa reading (PsaA Peptide 9144 [7]): 0.09 and 0.08 and 0.07 | Elisa reading (Peptide GNT-03 [8]): 2.81 | Elisa reading (Peptide GNT-04): 0.262 | Elisa reading (Peptide GNT-06 [9]): 0.104 | Elisa reading (Peptide GNT-062): 0.107 | Elisa reading (Peptide GNT-08 [10]): 0.761 | Elisa reading (Peptide GNT-09 [11]): 0.293 | Elisa reading (Peptide GNT-10): 0.09 | Elisa reading (Peptide GNT-13 [12]): 0.09 | Elisa reading (Peptide GNT-14 [13]): 0.092 | Elisa reading (PsaA Peptide 9144 [14]): 0.069 | Elisa reading (PLY Peptide 10146 [15]): 2.56 | Elisa reading (Peptide GNT-01 [16]): 1.68 | Elisa reading (Peptide GNT-02 [17]): > 3 | Elisa reading (Peptide GNT-07 [18]): 0.21 | Elisa reading (PsaA Peptide 9144 [19]): 0.09 | Elisa reading (PLY Peptide 10146 [20]): > 3 | Elisa reading (Peptide GNT-01 [21]): > 3 | Elisa reading (Peptide GNT-02 [22]): > 3 | Elisa reading (Peptide GNT-03 [23]): 2.81 | Elisa reading (Peptide GNT-06 [24]): 0.1 | Elisa reading (Peptide GNT-07 [25]): 0.13 | Elisa reading (Peptide GNT-09 [26]): 0.29 | Elisa reading (PsaA Peptide 9144 [27]): 0.07
